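The compound was tested at five concentrations on cells cultured in 96-well plates, with a 48-hour exposure period. The concentration for 50% growth inhibition is given as GI50. At the TGI there is no net growth.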

Among the data in PubChem BioAssay (NCI) are GI50 and TGI values, retold here.

The test system of this assay is NCI-H322M lung. Put plainly: DTP human tumour cell line panel, 48 h.

As for `NC(=O)n1c(=O)n(-c2cccc(C(F)(F)F)c2)c(=O)c2cc(-c3ccc(F)cc3F)ccc21`, the GI50 (as a rule, the concentration giving 50% growth inhibition) was 2350 nM and the TGI (as a rule, the concentration giving total growth inhibition) is 9100 nM.
The corresponding values for `CN1CCN(Cc2ccc(NC(=O)c3cncc(C#Cc4cnc5ccc(OC6CCOCC6)nn45)c3)cc2C(F)(F)F)CC1` are 213 nM and 1090 nM.
